# Data published in article PMC4336329 (PLoS ONE, 2015).
# About 2,200 (0.71%) of roughly 310,000 compounds showed an effect of 50% or more. The effect is printed as a negative number. This is one part of the list.
# Molecular target: human ether-à-go-go-related gene (hERG) potassium channel (human, UniProt Q12809)
# Assay: primary screen, population patch clamp on CHO cells stably expressing hERG
# Sequence of human ether-à-go-go-related gene (hERG) potassium channel (Q12809 whole entry, looked up): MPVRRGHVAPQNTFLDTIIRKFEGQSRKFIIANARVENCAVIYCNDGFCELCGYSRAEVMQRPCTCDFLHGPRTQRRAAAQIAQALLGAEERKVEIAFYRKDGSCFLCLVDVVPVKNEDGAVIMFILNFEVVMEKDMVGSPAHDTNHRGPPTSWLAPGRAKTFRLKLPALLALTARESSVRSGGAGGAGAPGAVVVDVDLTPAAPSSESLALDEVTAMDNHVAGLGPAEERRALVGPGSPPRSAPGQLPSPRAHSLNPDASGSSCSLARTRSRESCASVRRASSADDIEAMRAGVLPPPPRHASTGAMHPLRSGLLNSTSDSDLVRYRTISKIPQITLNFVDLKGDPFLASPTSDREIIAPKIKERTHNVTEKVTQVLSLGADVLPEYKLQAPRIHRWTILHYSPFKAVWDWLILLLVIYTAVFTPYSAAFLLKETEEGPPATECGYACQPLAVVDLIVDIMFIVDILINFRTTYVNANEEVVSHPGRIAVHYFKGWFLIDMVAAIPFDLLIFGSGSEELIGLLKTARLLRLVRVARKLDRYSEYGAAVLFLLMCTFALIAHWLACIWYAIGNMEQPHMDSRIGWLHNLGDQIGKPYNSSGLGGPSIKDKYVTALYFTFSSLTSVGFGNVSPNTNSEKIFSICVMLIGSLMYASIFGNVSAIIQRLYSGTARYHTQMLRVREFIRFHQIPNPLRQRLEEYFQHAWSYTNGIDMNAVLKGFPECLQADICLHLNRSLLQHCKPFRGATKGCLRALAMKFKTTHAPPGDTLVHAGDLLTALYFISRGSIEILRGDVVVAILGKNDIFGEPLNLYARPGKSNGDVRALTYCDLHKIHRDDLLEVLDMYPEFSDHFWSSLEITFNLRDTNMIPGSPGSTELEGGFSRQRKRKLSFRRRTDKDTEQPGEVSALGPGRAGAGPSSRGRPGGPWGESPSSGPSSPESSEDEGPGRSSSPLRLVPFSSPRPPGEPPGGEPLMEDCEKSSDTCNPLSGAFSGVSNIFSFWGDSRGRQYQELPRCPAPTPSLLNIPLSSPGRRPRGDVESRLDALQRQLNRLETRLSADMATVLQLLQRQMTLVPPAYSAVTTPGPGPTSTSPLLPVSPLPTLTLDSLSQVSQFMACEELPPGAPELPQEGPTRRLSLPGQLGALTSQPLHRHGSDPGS
row,SMILES,"hERG current change (%, negative = inhibition) at 1uM [%]"
1,COc1ccc2ncc(OC(C)=O)cc2c1,14.4
2,O=C(NCc1nnc(SCC(=O)N2CCCC2)o1)c1ccccc1,17.4
3,COc1cccc(CNC(=O)COC(=O)CNC(=O)c2ccc(-c3ccccc3)cc2)c1,12.4
4,CC(C)Cc1nnc(NC(=O)c2ccc(N3CCCC3=O)cc2)s1,12.3
5,COP(=O)(OC)C(Nc1ccc(C)cc1)c1ccc([N+](=O)[O-])cc1 (stereo not shown),6.97
6,CCCN(CC(=O)Nc1ccccc1OC)Cc1c(O)ccc2ccccc12,11.9
7,COc1cc(C(=O)Nc2cc(C(F)(F)F)ccc2N2CCOCC2)ccc1O,4.25
8,COc1cc(C(=O)NCC(=O)n2nc(C)cc2C)cc(OC)c1OC,9.66
9,CS(=O)(=O)N1N=C(c2ccc3nccnc3c2)CC1c1ccccc1 (stereo not shown),-13
10,COc1cc(Cl)c(C)cc1NC(=O)CSc1sc2c(O)cc(=O)[nH]c2c1C#N,18.7
11,Cc1cc(C)c(C(N)=O)c(SCC(=O)c2ccc(Cl)cc2)n1,-2.4
12,CCCc1[nH]nc2c1C(c1c(C)nn(-c3ccccc3)c1Cl)C(C#N)=C(N)O2 (stereo not shown),6.11
13,Cc1ccc(C(=O)N2CCn3c(C)ccc3C2C)cc1 (stereo not shown),1.48
14,O=C(COC(=O)c1ccccc1SCC(=O)N1CCCC1)NC1CCS(=O)(=O)C1 (stereo not shown),8.67
15,C=CCSC1=C(C#N)C(c2ccccc2OC)CC(=O)N1 (stereo not shown),4.18
16,O=C(Nc1ccccc1)c1cc2ccccc2o1,8.25
17,NC(=O)C1CC(=O)N(c2ccc(OCC(=O)NCc3ccccc3)cc2)C1 (stereo not shown),11.3
18,COc1ccc(C(=O)CC(=O)C(=O)NCCc2cccc(C)c2)cc1,6.12
19,Cc1cc(NC(=O)CSc2nc3ccccc3n2CC(C)C)no1,16.1
20,CC(C)C(=O)NC(NC(=S)Nc1ccc(S(N)(=O)=O)cc1)C(Cl)(Cl)Cl (stereo not shown),12.7
21,Cc1ccc(-n2nnnc2SCc2nc3sc(C)c(C)c3c(=O)[nH]2)cc1,-4.72
22,CCCc1ccc(-c2cc(C(=O)Nc3ccc([N+](=O)[O-])cn3)c3ccccc3n2)cc1,5.79

row,SMILES,"hERG current change (%, negative = inhibition) at 1uM [%]"
1,CCN(C(=O)COC(=O)CNC(=O)c1cccc(C)c1)c1c(N)n(Cc2ccccc2)c(=O)[nH]c1=O,15.3
2,COc1cccc(/C=N/NC(=O)c2cc3c(OC)ccc(OC)c3[nH]2)c1O,20.1
3,Cc1cc(N)n2nc(C(F)(F)F)nc2n1,14.4
4,O=C(N/N=C/c1ccc(Cl)cc1)C(=O)N1CCCCCC1,14.7
5,C[C@H](NC(=O)c1nc[nH]c1C(=O)N1CCN(c2ccccc2)CC1)C(=O)OC(C)(C)C,11.7
6,COc1ccc2c(c1)CC(C)C/C2=N\NC(=O)c1ccco1 (stereo not shown),18.5
7,CCCCCCC(=O)N(O)C1CC(=O)N(Cc2ccccc2)C1=O (stereo not shown),3.36
8,Cc1ccc(OC(=O)c2ccc(S(=O)(=O)N(C)C)cc2)c(-n2nc3ccccc3n2)c1,2.42
9,O=C(OCN1C(=O)c2ccccc2C1=O)c1ccc(Cl)nc1,6.97
10,Cc1cc(=O)[nH]c(N/N=C/c2sccc2C)n1,5.05
11,O=C(CN(Cc1ccccc1Cl)C(=O)c1csnn1)NCCc1ccccc1,7.11
12,CCCCNC(=O)COC(=O)c1cc(S(=O)(=O)N2CCCCCC2)ccc1OC,-8.75
13,c1ccc(OCCOc2ncnc3ccccc23)cc1,11.4
14,CC(C)NC(=O)CCCC(=O)NC(C)C,14.6
15,COc1cccc(CNC(=O)CSC(=S)N2CCCC2)c1,18.2
16,O=C(CSc1nnc(CCCN2C(=O)c3cccc4cccc(c34)C2=O)n1-c1ccccc1)NCCCN1CCOCC1,2.25
17,Cc1ccc(S(=O)(=O)N2CCC(C(=O)OCC(=O)N(C)CC(=O)Nc3ccc(F)cc3)CC2)cc1C,5.88
18,COCCN1C(=O)C(=O)/C(=C(/O)c2ccc(S(=O)(=O)N3CCOCC3)cc2)C1c1ccc(OC)c(OC)c1 (stereo not shown),10.6
19,CC(C)CCNC(=O)C(=O)Nc1ccccc1,-2.37
20,COc1ccccc1N1C(=O)S/C(=C\c2ccc(C)s2)C1=O,17.7
21,COc1ccc2c(C)c(CC(=O)N3C[C@H]4C[C@@H](C3)c3cccc(=O)n3C4)c(=O)oc2c1OC,4.86
